Measured values taken from PubChem BioAssay AID686971 (National Center for Advancing Translational Sciences (NCATS), 2013).
Screen size: about 360,000 compounds; about 7,500 (2.1%) were called active. Inconclusive means that the source gave no clear call. Such entries were picked first, then a sample of the others. The call rests on the fitted dose curve; in most records, active means well fitted cell-killing curve with a large enough effect; inconclusive means small, poorly fitted or top-dose-only effect, or effect the other way, or another doubt; inactive means no such curve, though single readings can be large or run the other way. Potencies of inconclusive entries are left out as doubtful fits.

Assay: qHTS for induction of synthetic lethality in tumor cells producing 2HG: qHTS for the HT-1080-IDH1KD cell line;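 on activity, negative = toxicity: 0% = DMSO wells and -100% = cell-free medium wells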
Conditions: HT-1080 IDH1 knockdown viability, ATP luminescence, 48 h; activity, negative = toxicity: at 46.1 µM (top of the series) unless noted
How it was run: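 In this qHTS, HT-1080 cells depleted of IDH1 are exposed for 48 h at 37 °C to compound titrations. Toxicity is scored from CellTiter-Glo luminescence, with DMSO as full viability and medium alone as none.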
Potency means the concentration at half of the fitted maximal effect; tags describe the fitted curve by direction and shape.

| SMILES | Potency | activity, negative = toxicity |
| --- | --- | --- |
| O=C(Nc1ccon1)c1nc[nH]c1C(=O)NCc1ccccc1 | active: 2.59 µM | – |
| COc1cc(-c2coc3c(C(=O)Nc4ccc(C(C)C)cc4)cccc23)ccc1O | active: 20.6 µM | – |
| COc1ccccc1-c1nnc2sc(-c3ccc(N(C)C)cc3)nn12 | active: 0.517 µM | – |
| COc1ccc(N(CC(=O)Nc2cccnc2)S(=O)(=O)c2ccc(C)cc2)cc1Cl | – | inactive: -22% |
| CCOC(=O)c1c(-c2ccc(C)cc2)csc1NC(=S)NC(=O)c1ccccc1 | inconclusive [cytotoxic, single point] | – |
| CC(Sc1nc2ccc(C(=O)c3ccccc3)cc2[nH]1)C(=O)O (stereo unspecified) | – | inconclusive: 30.3% |
| O=C(NCC(c1ccco1)N1CCN(c2ccccc2F)CC1)c1ccco1 (stereo unspecified) | – | inactive: 0.218% |
| COc1ccc(CC(=O)N/N=C/c2cc(Br)cs2)cc1OC | – | inactive: 2.83% |
| Cn1c(=O)c2c(nc(SCCN3CCOCC3)n2Cc2cccc3ccccc23)n(C)c1=O | inconclusive [cytotoxic, single point] | – |
| Cc1cc(OCC(=O)OCC(=O)NCc2cccs2)ccc1Cl | – | inactive: 4.84% |
| Cc1sc2nc(Cc3ccccc3)[nH]c(=O)c2c1-c1ccccc1 | inconclusive [rising, partial curve] | – |
| O=C(NCc1cccc(CNC(=O)Nc2cccc(O)c2)c1)Nc1cccc(O)c1 | inconclusive [cytotoxic, single point] | – |
| CCN(C(=O)c1ccc(C(C)(C)C)cc1)c1nnc(Cn2nnc3ccccc32)s1 | inconclusive [cytotoxic, partial curve, poor fit] | – |
| C=CCNC(=S)N/N=C/c1cn(-c2ccccc2)nc1-c1ccc(OC)cc1 | – | inconclusive: 4.93% |
| C[C@H]1Cn2cnc(C(=O)Nc3ccccc3)c2C(=O)N1 | – | inactive: 4.69% |
| C=CCOc1ccc(C2C(C#N)=C(N)N(Nc3ccccc3)C3=C2C(=O)CC(C)(C)C3)cc1OC (stereo unspecified) | inconclusive [cytotoxic, single point] | – |
| O=C(NNc1nc(-c2ccc(F)cc2)cs1)c1ccccc1 | inconclusive [cytotoxic, partial curve] | – |
| CC(/C=C/c1ccccc1)=N\NC(=O)c1cc(C)nc2ccccc12 | inconclusive [cytotoxic, single point] | – |
| Clc1ccc(COn2c(-c3ccc(Cl)cc3Cl)nc3ncccc32)cc1 | inconclusive [cytotoxic, single point] | – |
| CCOc1cc(CNc2ccc(N3CCCC3)cc2)cc(Cl)c1OC | inconclusive [cytotoxic, single point] | – |
| CCc1cc(=S)n2c([nH]c3ccccc32)c1C#N | inconclusive [cytotoxic, single point] | – |
| COc1ccc(NC(=O)Nc2nccs2)cc1 | inconclusive [cytotoxic, full curve] | – |
| COc1ccc(Cl)cc1CN1C(=O)NC2(CCCCCC2)C1=O | inconclusive [cytotoxic, single point] | – |
| Cc1ccc(NC(=O)COc2ccccc2CNC(C)(C)CC(C)(C)C)cc1 | inconclusive [cytotoxic, single point] | – |

| SMILES | Potency | activity, negative = toxicity |
| --- | --- | --- |
| CCCCCCn1c(SCCC)nc2c1c(=O)[nH]c(=O)n2C | – | inactive: 4.32% |
| Cc1nn(-c2ccccc2)c(Cl)c1/C=N/Nc1nc2ccccc2[nH]1 | inconclusive [cytotoxic, single point] | – |
| CCc1ccccc1NC(=O)c1cc(C2CC2)on1 | – | inactive: 16.5% |
| Cc1ccc2cc(C3C(C#N)=C(N)Oc4c3ccc3cccnc43)c(=O)[nH]c2c1 (stereo unspecified) | inconclusive [cytotoxic, full curve] | – |
| Cc1cccc(N2CCN(C(=O)c3[nH]c(C(F)(F)F)nc3-c3ccccc3)CC2)c1C | active: 0.58 µM | – |
| CC(C)(CO)NCc1c(OCc2ccc(Cl)cc2)ccc2ccccc12 | inconclusive [cytotoxic, single point] | – |
| COc1cc(C2c3cc4c(cc3CC3COC(=O)N32)OCO4)cc(OC)c1OC (stereo unspecified) | active: 1.03 µM | – |
| Cc1cc(C(=O)NC2CCCc3c2cnn3-c2ccc(C)c(C)c2)n(C)n1 (stereo unspecified) | inconclusive [cytotoxic, full curve] | – |
| O=c1[nH]c(CCl)nc2cc(-c3ccc(Cl)cc3)sc12 | active: 11.6 µM | – |
| Cc1nc(SCc2ccc(Br)cc2)[nH]c(=O)c1C | inconclusive [cytotoxic, single point] | – |
| COc1ccc([C@H]2C[C@H](n3cc(C4CC4)nn3)[C@@H](O)CN2CC2CCCCC2)cc1 | inconclusive [cytotoxic, single point] | – |
| CN1CCN(C=NC2=NN(c3cccc(C(F)(F)F)c3)CC2)CC1 | – | inactive: -19.2% |
| O=C(Cc1ccc(Cl)c(Cl)c1)Nc1cccc(S(=O)(=O)N2CCOCC2)c1 | inconclusive [cytotoxic, single point] | – |
| Nc1nc(-c2ccccn2)nc(N)c1Cc1c(F)cccc1Cl | inconclusive [cytotoxic, single point] | – |
| COc1ccc(C(C)(O)c2nc(-c3cc(F)cc(F)c3)cs2)cc1 (stereo unspecified) | inconclusive [cytotoxic, single point] | – |
| Nc1c(C(=O)Nc2ccc3c(c2)OCCO3)nnn1CCc1ccccc1 | inconclusive [cytotoxic, single point] | – |
| CC(=O)c1nn(-c2cccc(Br)c2)cc1C(=O)c1ccccc1 | inconclusive [cytotoxic, single point] | – |
| Cc1c(C(=O)NC2CCCc3ccccc32)oc2ccccc12 (stereo unspecified) | inconclusive [cytotoxic, single point] | – |
| CCOC(=O)c1cccc2c1-c1ccccc1/C2=N/O | inconclusive [cytotoxic, single point] | – |
| Cc1cc(N)n(-c2nc(-c3cccnc3)nc3ccccc23)n1 | – | inactive: -11% |
| O=C1c2cccc(NCCNCCO)c2C(=O)c2cccc(NCCNCCO)c21 | active: 8.2 µM | – |
| O=C(CS(=O)c1ccc(C(F)(F)F)cc1[N+](=O)[O-])Oc1ccc(Cl)cc1 (stereo unspecified) | inconclusive [cytotoxic, single point] | – |
| COc1ccc(NC(=O)Cn2c(=O)n(CC3CCCO3)c(=O)c3cc(OC)c(OC)cc32)cc1OC (stereo unspecified) | – | inactive: 0.467% |
| CCn1c2ccccc2c2cc(/C=N/NC(=O)c3cc(O)cc(O)c3)ccc21 | inconclusive [cytotoxic, single point] | – |

| SMILES | Potency | activity, negative = toxicity |
| --- | --- | --- |
| c1ccc(CN(CC2=NCCN2)c2ccccc2)cc1 | inconclusive [cytotoxic, single point] | – |
| Cc1ccc(N2C(=O)c3cccc4c(Oc5ccccc5[N+](=O)[O-])ccc(c34)C2=O)c(C)c1 | – | inactive: 3.77% |
| CCOc1ccc2nc(SC3CC(=O)N(c4ccc(C)cc4)C3=O)sc2c1 (stereo unspecified) | inconclusive [cytotoxic, partial curve] | – |
| CCN(c1nc(N)c(C(=O)N=C(N)N)nc1Cl)C(C)C | inconclusive [cytotoxic, single point] | – |
| O=C(NCc1cccnc1)c1ccc(COc2ccccc2Br)o1 | inconclusive [cytotoxic, single point] | – |
| COc1ccc(CC(N)c2csc(NC(=O)Cc3ccccc3)n2)cc1 (stereo unspecified) | inconclusive [cytotoxic, single point] | – |
| COc1ccc2c(c1OC)C(=O)N1C2SC[C@H]1C(=O)NC1CCCCC1 (stereo partly specified) | – | inactive: 1.37% |
| O=C(Cc1cccs1)Nc1ccccc1-c1nc2ccccc2[nH]1 | inconclusive [cytotoxic, partial curve] | – |
| C=CCN(C(=O)c1cccc(S(=O)(=O)N2CCN(C)CC2)c1)c1nc(-c2ccccc2)cs1 | inconclusive [cytotoxic, single point] | – |
| CCOc1ccc(C(=O)Nc2ccc(NC(=O)c3ccccc3)c(C)c2)cc1[N+](=O)[O-] | inconclusive [cytotoxic, partial curve] | – |
| Cc1ccc(CNC(=O)CCCC(=O)c2ccccc2)cc1 | – | inactive: 19.8% |
| O=C(COC(=O)C1CCC(N2C(=O)C3C4CCC(C4)C3C2=O)CC1)c1ccc(F)cc1 (stereo unspecified) | – | inactive: 15.4% |
| COc1ccc(CNCC(O)COc2ccc(C(C)(C)c3ccccc3)cc2)cc1 (stereo unspecified) | active: 16.4 µM | – |
| Cc1ccc(OCC(=O)Nc2ccc(NC(=O)c3cccs3)cc2)c(C)c1 | inconclusive [cytotoxic, single point] | – |
| COc1ccc(Cn2c(=O)c3[nH]cnc3n(-c3ccccc3C)c2=O)cc1 | active: 11.6 µM | – |
| O=C1N/C(=N\N=C\c2cccs2)SC1Cc1ccc(Cl)cc1 (stereo unspecified) | active: 23.1 µM | – |
| CC(=O)c1ccc2c(c1)N(Cc1ccc3ccccc3c1)C(=O)C(C)S2 (stereo unspecified) | inconclusive [cytotoxic, single point] | – |
| O=C(Nc1ccc(Nc2ccccc2)cc1)c1ccc(Cl)c([N+](=O)[O-])c1 | inconclusive [cytotoxic, single point] | – |
| CCOc1cc(N2CCOCC2)c(OCC)cc1NC(=O)Cc1cccc2ccccc12 | inconclusive [cytotoxic, single point] | – |
| CCCC(CCC)C(=O)Nc1ccc2c(c1)N(C(=O)CN1CCN(C)CC1)c1ccccc1CC2 | inconclusive [cytotoxic, single point] | – |
| C/C(=N\NC(=O)c1nnn(-c2nonc2N)c1-c1ccccc1)c1ccccc1O | active: 1.84 µM | – |
| Cc1c(NC(=O)c2cc3ccccc3o2)cccc1-n1cnnn1 | – | inactive: 22% |
| O=C(CN1C(=O)CCC1=O)NNc1ccc2ccccc2c1 | active: 2.31 µM | – |
